In all, about 50,000 compounds went through this assay and about 800 (1.6%) showed an effect of 50% or more. This is one part of the list.

This assay concerns the target Bcl-2-like protein 10 (Homo sapiens) (UniProt Q9HD36). Briefly: TR3 peptide-Bcl-B binding displacers, biochemical primary FP assay, phenotype converters (AID 1240).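 Note: 0% = Bcl-B with tracer peptide and DMSO and 100% = tracer peptide lacking Bcl-B.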 The settings on record: GST-Bcl-B / FITC-TR3 peptide fluorescence polarization; stronger effect = higher value; compound at 3.75 mg/L.
Sequence of UniProt Q9HD36 (Q9HD36 whole entry, looked up): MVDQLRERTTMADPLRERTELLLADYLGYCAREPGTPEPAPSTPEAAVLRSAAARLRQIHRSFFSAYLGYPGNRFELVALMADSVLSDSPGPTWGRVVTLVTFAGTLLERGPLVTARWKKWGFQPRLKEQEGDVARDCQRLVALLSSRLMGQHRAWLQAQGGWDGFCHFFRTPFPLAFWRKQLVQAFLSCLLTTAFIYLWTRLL
On to `CC(=O)c1cccc(NC(=O)Cn2cnc([N+](=O)[O-])n2)c1`, for which the displacement amounted to 10%.
As for `COc1cc(/C=C2\C(=O)N(c3ccc(S(N)(=O)=O)cc3)N=C2C)ccc1OCc1ccccc1`, the displacement came to 18.3%.
With `Cc1sc(NC(=O)c2cc(Cl)ccc2[N+](=O)[O-])nc1-c1ccccc1`, the displacement was -7.7%.
The figure for `O=C1NC(=S)N/C1=C\c1ccc(-c2cccc([N+](=O)[O-])c2)o1` is 10.5%.
`CC1CC2(C)Oc3ccccc3C3OCC1(COC(=O)Nc1ccccc1)C(C)C32` (stereo not drawn): the displacement came to 10%.
On to `CCOc1cccc(C(=O)Nc2scc(-c3ccc(F)cc3)c2C(=O)OC)c1`, for which the displacement is -10.6%.
The figure for `C/C(CC(=O)NC12CC3CC(CC(C3)C1)C2)=N\NC(=O)c1ccc(-c2ccccc2)cc1` is -7.5%; for `CC(=O)Nc1cccc(Nc2nc3ccccc3nc2NS(=O)(=O)c2ccc(Cl)cc2)c1` it is 12.2%; for `O=C1NC(=S)N/C1=C/c1ccc(Sc2ccccc2)o1` it is -50%.
`CN(C)c1ccc(C(c2ccc(N(C)C)cc2)(c2ccc(N(C)C)cc2)C(F)(F)F)cc1`: the displacement is -11.3%.
The value for `CCOC(=O)c1ccccc1NC(=O)CN(c1ccccc1OC)S(=O)(=O)c1ccccc1` was 5%.
Consider `COc1ccc(NC(=O)CSc2nc3ccccc3[nH]2)c(OC)c1`, for which the displacement was 10.3%.
In the case of `CC(C)c1ccc(NC(=O)CN(c2ccc(Br)cc2)S(C)(=O)=O)cc1`, the displacement is 2.2%.
Turning to `Clc1ccc(N2CCN(/N=C/c3ccc(Cl)cc3Cl)CC2)cc1`, the displacement was -4.7%.
As for `CCOC(=O)c1c(NC(=O)c2ccccc2F)sc2c1CCCCC2`, the displacement is 11.4%.
The value for `O=C(Nc1cccc(Br)c1)Nc1ccc2nccnc2c1` was 9.4%; that for `CCc1ccc2oc(-c3cccc(NC(=O)c4ccccc4I)c3)nc2c1` was -6.2%.
`COc1ccc(NC(=O)c2nn3c(c2Br)NC(c2cccs2)CC3C(F)(F)F)c(OC)c1` (stereo not drawn): the displacement is 3.9%.
The figure for `CCCn1c(SCc2nc3ccccc3[nH]2)nc2ccccc21` is 1.4%; for `Cc1ccc2nc(-c3ccc(O)cc3)sc2c1` it is 12.7%; for `CCOc1ccc(NC(=O)c2c(NC(=O)c3ccc(C)cc3)sc3c2CCC3)cc1` it is -0.8%.
The value for `Cc1ccccc1CC(CC(=O)O)C(=O)O` (stereo not drawn) was 10.6%.
`Cc1cc(NC(=O)C2CC3CCC2C3)no1` (stereo not drawn): the displacement is 6.8%.
The figure for `COC(=O)c1ccc(-n2ncnc2-c2ccc(OCc3ccccc3)c(OC)c2)cc1` is 5.3%.
For `COc1cc(C2Nc3ccccc3NC3=C2C(=O)CC(C)(C)C3)cc([N+](=O)[O-])c1O` (stereo not drawn), the displacement worked out at 8.2%.
With `CCCC1=C(C(=O)OCC)C(c2ccc(OC)cc2OC)NC(=O)N1` (stereo not drawn), the displacement is -0.7%.
The figure for `CC1(C)CC(=O)C2=C(C1)OC(N)=C(C#N)C21CCCCC1` is 34.8%; for `Cc1cc(CN2CCOCC2)oc1C(=O)O` it is -14.9%.
`CCOC(=O)c1sc(NC(=O)/C=C/c2ccc3c(c2)OCO3)c(C(=O)OCC)c1C`: the displacement came to 10.6%.
As to `O=C(NN1CCOCC1)c1sc2ccccc2c1Cl`, the displacement worked out at 7.8%.
As for `O=C1NC(=Nc2ccccc2Cl)S/C1=C/c1cc(Br)cc(Cl)c1O`, the displacement was -59.8%.
The value for `COc1cc(C(=O)N2CCN=C2c2ccccc2)cc(OC)c1OC` was -3.1%; that for `Cc1cccc(N2CCN(S(=O)(=O)c3ccccc3)CC2)c1` was -4.2%.
As to `COc1ccc(CN2CCN(C(=O)c3ccccc3OC)CC2)cc1OCc1ccccc1`, the displacement was -12.7%.
`CCOc1ccc(C(=O)Nc2cc3nn(-c4ccc(C)cc4)nc3cc2C)cc1`: the displacement came out at 3.8%.
As for `Cc1onc(-c2c(F)cccc2Cl)c1C(=O)NCC1COc2ccccc2O1` (stereo not drawn), the displacement is -6.5%.
Turning to `CCCN(C=O)/N=C/c1ccc(Cl)cc1`, the displacement is 3%.
For the compound `COc1ccc(C(=O)Nc2sc3c(c2C(N)=O)CCCCCC3)cc1OC`, the displacement was -3.4%.
`CCOC(=O)c1c(NC(=O)c2ccc(S(=O)(=O)N3CCOCC3)cc2)sc(C)c1C`: the displacement stood at 2.5%.
Take `CCN(CC)c1ccc(/C=N/NC(=O)Cn2nnc(-c3ccccc3)n2)c(O)c1`: the displacement is -12.8%.
`COC(=O)c1ccccc1P(C)(C)=O`: the displacement was determined as 1%.
In the case of `Clc1ccc(-c2nc(N3CCOCC3)c3ccccc3n2)c(Cl)c1`, the displacement is 18.4%.
Regarding `CN(C)c1ccc(/C=N/NC(=O)c2cc(=O)[nH]c3ccccc23)cc1`, the displacement is -1.7%.
Take `O=C(Nc1c[nH]c(=O)[nH]c1=O)c1ccc2c(c1)C(=O)N(c1ccc([N+](=O)[O-])cc1)C2=O`: the displacement was -3.2%.
For `CCOc1ccc(C(=O)Nc2cccc(S(N)(=O)=O)c2)cc1Br`, the displacement is -1.1%.
For `O=C(Nc1ccc(F)cc1)Nc1ccc(I)cc1`, the displacement is 4.2%.
Turning to `CCOC(=O)C1=C(C)N=c2s/c(=C\c3ccc(C)o3)c(=O)n2C1c1ccc(SC)cc1` (stereo not drawn), the displacement amounted to 65.3%.
Regarding `O=C1c2cc3ccccc3cc2C(=O)N1c1ccc(O)cc1`, the displacement was determined as 0.2%.
`O=C(COc1ccccc1[N+](=O)[O-])N/N=C/c1cc(O)c(Br)cc1Br`: the displacement is 3.1%.
Take `O=C(Nc1cccc(C(F)(F)F)c1)C1C2CC/C=C\CCC21` (stereo not drawn): the displacement was -0.9%.
With `CC1=C(C(=O)OCC2CCCO2)C(c2ccccc2Br)NC(=O)N1` (stereo not drawn), the displacement was 5.9%.
For `N#C/C(=C/c1cc(Cl)c(O)c(Cl)c1)C(=O)Nc1cccc(Br)c1`, the displacement is -28.2%.
Turning to `CCOc1ccc(Cl)cc1/C=C1/SC(=S)N(C)C1=O`, the displacement amounted to 0.7%.
Turning to `CSCCC(C(=O)O)N1C(=O)/C(=C/c2ccccc2Cl)SC1=S` (stereo not drawn), the displacement came to 9.3%.
Consider `Oc1ccc(-c2cc(-c3ccc(O)cc3)nc(-c3ccccc3)n2)cc1`, for which the displacement is -1.5%.
In the case of `COc1ccc(C2=N/C(=C/c3ccc([N+](=O)[O-])cc3)C(=O)N2c2ccc(F)cc2)cc1`, the displacement stood at 10%.
For `O=C(CCN1C(=O)c2ccccc2C1=O)N1CCN(Cc2ccc(Cl)cc2)CC1`, the displacement is -15.4%.
In the case of `Cc1ccc(OCCCN2CCN(C)CC2)c(C(C)(C)C)c1`, the displacement was -8%.
`Nc1cccc(C(=O)/C=C/c2ccc(Cl)cc2Cl)c1`: the displacement amounted to 1%.
Turning to `O=C(NCCc1ccccc1)c1nn2c(C(F)(F)F)cc(-c3ccccc3)nc2c1Br`, the displacement stood at 0.8%.
On to `CC(C)(C)c1ccc(OCC(O)CS(=O)(=O)Cc2ccc(Cl)cc2)cc1` (stereo not drawn), for which the displacement was determined as 8.5%.
Consider `Cc1cc(N2CCOCC2)nc(N2CCOCC2)n1`, for which the displacement was found to be 15.9%.
Turning to `CC(C)N(Cc1ccccc1)C(=O)CN1C(=O)c2ccccc2C1=O`, the displacement amounted to 11.1%.
Regarding `COc1ccc(CC(=O)Nc2ccc(C)c(C)c2)cc1OC`, the displacement amounted to 1.4%.
`O=[N+]([O-])c1cc(Cl)ccc1NCCCNS(=O)(=O)c1ccccc1`: the displacement came to 6.9%.
As for `COc1ccccc1N1CCN(C(=O)COc2ccc(C)cc2Br)CC1`, the displacement came to 6.1%.
For the compound `Cc1ccc2[nH]c(O)c(N=Nc3ccc([N+](=O)[O-])cc3[N+](=O)[O-])c2c1Br`, the displacement worked out at 1.4%.
On to `Cc1cc2c(cc1C)N(C(=O)CSc1nccn1C)C(C)(C)c1ssc(=S)c1-2`, for which the displacement worked out at 13.1%.

The record behind these values is PubChem BioAssay AID1240 (Sanford-Burnham Center for Chemical Genomics, 2008).
